The subject of this experiment is B6C3F1 mice, intracerebral ependymoblastoma, median survival T/C. Briefly: NCI In Vivo Anticancer Drug Screen. Data for tumor model Ependymoblastoma (intracerebral) in B6C3F1 mice. The following applies: endpoint: median survival time, higher = longer survival. As to the method: The antitumor activity of compounds was measured in mice bearing transplantable tumors. Survival or tumor size were measured and the results are expressed as the measurement made in the treated group (T) divided by the measurement made in the vehicle treated control group (C). The tumor model used in this assay is Ependymoblastoma (intracerebral) in B6C3F1 mice

[1] abbreviates: dose: 64.0 mg/kg/injection, schedule: Q01DX005 (ip), vehicle: saline with Tween-80.

Toxic doses and inconclusive results are not listed. Certain results were filed several times, with different values. The other results are left out here. There may be further records. Results that share an entry are repeats across runs, samples, wells, individuals or studies.

On to `N[C@@H](Cc1ccc(N(CCCl)CCCl)cc1)C(=O)O`, for which the T/C (dose: 4.0 mg/kg/injection, schedule: Q01DX005 (ip), vehicle: saline) was 114 % of control and 154 % of control.
In the case of `O=c1n(CC2CO2)c(=O)n(CC2CO2)c(=O)n1CC1CO1` (stereo not drawn), the T/C was 123 % of control and 155 % of control (dose: 25.0 mg/kg/injection, schedule: Q01DX009 (ip), vehicle: saline); 117 % of control and 160 % of control (dose: 40.0 mg/kg/injection, schedule: Q01DX009 (ip), vehicle: saline).
On to `O=NN(CCCl)C(=O)NCCCl`, for which, under “dose: 4.0 mg/kg/injection, schedule: Q01DX005 (ip), vehicle: saline with Tween-80”, the T/C is 120 % of control and 154 % of control.
On to `CN(C)/N=N/c1nc[nH]c1C(N)=O`, for which the T/C is 110 % of control and 151 % of control (dose: 32.0 mg/kg/injection, schedule: Q01DX005 (ip), vehicle: saline with Tween-80); 109 % of control and 160 % of control under setting [1]; 123 % of control and 156 % of control (dose: 256.0 mg/kg/injection, schedule: Q01DX005 (ip), vehicle: saline with Tween-80).
With `CN(N=O)C(N)=O`, the T/C runs as follows: (dose: 8.0 mg/kg/injection, schedule: Q01DX005 (ip), vehicle: Klucel (hydroxypropylcellulose) (HPC)) 120 % of control and 152 % of control; (dose: 64.0 mg/kg/injection, schedule: Q01DX001 (ip), vehicle: saline + alcohol) 118 % of control and 159 % of control.
With `COC(=O)c1ccc(N=NN(C)C)cc1`, the T/C (dose: 64.0 mg/kg/injection, schedule: Q01DX005 (ip), vehicle: saline + alcohol) is 121 % of control and 164 % of control.
As to `O=NN(CCCl)C(=O)NC1CCC(=O)NC1=O` (stereo not drawn), where the note is “dose: 2.0 mg/kg/injection, schedule: Q01DX005 (ip), vehicle: suspension in saline”, the T/C was 110 % of control and 157 % of control.
In the case of `CN(C)N=Nc1ccc([N+](=O)[O-])cc1C(N)=O`, the T/C was 100 % of control and 153 % of control under setting [1]; 123 % of control and 181 % of control (dose: 128.0 mg/kg/injection, schedule: Q01DX005 (ip), vehicle: saline with Tween-80).

The values are drawn from PubChem BioAssay AID226 (DTP/NCI, 2004).
